The whole screen tested about 190,000 compounds, of which about 360 (0.19%) were called active. Inconclusive means that the source gave no clear call. Such entries were picked first, then a sample of the others.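 Rule for the calls: active = GTP binding activity at least 20 points away from 100%, either lowered or raised; inconclusive = signal likely due to the compound's own green fluorescence; inactive = the rest.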
Target: Ras-related protein Rab-2A (Canis lupus familiaris) (UniProt P61105)
Assay: Rab2 wt fluorescent GTP binding changes, either direction – biochemical, dog, bead-based flow cytometry, multiplex, primary screen (AID 760);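 note: 0% = beads with excess unlabeled GTP and 100% = no-compound control corrected for plate trend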
Details: GST-Rab2 wt beads, Bodipy-GTP binding, at 10 µM

SMILES | GTP binding activity
CCOc1cc(/C=N/NC(=O)CN2CCCCC2)ccc1OCc1cccc(Cl)c1 | inactive: 98%
COc1cc(-c2nc3c(c(C)nn3-c3ccccc3)c3cc(OC)c(OC)cc23)ccc1O | inconclusive: 91%
Cc1nn2c(-c3ccccc3)nnc2c2ccccc12 | inconclusive: 92%
CCOC(=O)c1cccc(NC(=O)CSc2nnnn2C)c1 | inconclusive: 107%
COCC(=O)Nc1ccc(Br)cc1 | inconclusive: 105%
CC(=O)c1cnc(Nc2nc(C)c3ccccc3n2)nc1C | inconclusive: 102%
Cc1cccc(NC(=O)CSc2nc(NS(=O)(=O)c3ccccc3)cc(=O)[nH]2)c1 | inactive: 96%
CCN(CC)CCC(=O)c1ccc(F)cc1 | inconclusive: 80%
CC(=O)c1ccc(NC(=S)Nc2ccc3cn[nH]c3c2)cc1 | inconclusive: 87%
CCOc1ccccc1NC(=O)C(=O)N/N=C/c1ccc([N+](=O)[O-])cc1 | inconclusive: 97%
Cc1ccc(Cn2nnnc2CN2CCC(NC(=O)C(C)(C)C)CC2)cc1 | inconclusive: 94%
COCCNC(=O)Cn1c(=O)n(CCCCCC(=O)NCc2ccc3c(c2)OCO3)c(=O)c2sccc21 | inconclusive: 95%
CCNC(=O)COC(=O)/C=C/c1c(C)nn(Cc2cccc(OC)c2)c1Cl | inactive: 95%
CCOC(=O)c1c(NC(=O)c2c(C)noc2C)sc2c1CCCCC2 | inconclusive: 111%
COc1ccccc1Cn1c(=S)[nH]c2cc(C(=O)NCc3cccnc3)ccc2c1=O | inconclusive: 94%
CCN(c1ccc(N=Cc2c(O)n(Cc3ccc(OC)cc3)c(=O)c3ccccc23)cc1)C(C)C | inconclusive: 370%
CCN1CCN(C(=O)CSc2nc(N)cc(N)n2)CC1 | inconclusive: 80%
COc1ccc(-c2cc(=O)oc3c(C)c(OC(=O)c4cccs4)ccc23)cc1 | inconclusive: 113%
O=S(=O)(Nc1cccc(-c2cn3cccnc3n2)c1)c1ccccc1 | active: 74%
Oc1ccc(C2N=C(c3ccccc3)NC(c3ccccc3)=N2)cc1 | inconclusive: 101%

SMILES | GTP binding activity
COc1cc(SC)ccc1C(=O)Nc1ccccc1C#N | inconclusive: 104%
Cc1cccc(C)c1NC(=O)C(=O)NCc1ccccn1 | inactive: 103%
O=C(NC(=S)Nc1nc2ccc(F)cc2s1)c1ccco1 | inconclusive: 91%
Cc1cc(C)n(-c2ccc3nncn3n2)n1 | inactive: 102%
Cc1ccc(/C=C/C(=O)Nc2cc(S(N)(=O)=O)ccc2O)cc1 | inconclusive: 96%
Cc1cccc(C)c1NC(=S)N1CCC(c2ccccc2)C1 (stereo not given) | inactive: 99%
Cc1ccc(Sc2ncccc2C(=O)O)c(C)c1 | active: 124% [activator]
Cc1cc(NS(=O)(=O)c2ccc(NC(=O)c3cc4c(=O)n5ccccc5nc4s3)cc2)nc(C)n1 | inactive: 80%
Cn1cnnc1SCC(=O)NCCc1ccc(Cl)cc1Cl | inactive: 99%
COc1ccc(N)c2c1C(=O)c1ccccc1C2=O | inconclusive: 83%
O=C(COc1cccc(Cl)c1)Nc1ccc2c(c1)CCC2 | inactive: 94%
CCCc1ccc(OCC(=O)Nc2cc(S(=O)(=O)CC)ccc2O)cc1 | inactive: 100%
CCOc1ccc(CC(=O)NCC2(N3CCCCC3)CCCCC2)cc1 | inconclusive: 81%
O=C1OC(c2ccccc2)=NC12CC2c1ccc(Cl)cc1 (stereo not given) | inconclusive: 94%
CC(=O)Nc1ccc(S(=O)(=O)Nc2ccc(C)c([N+](=O)[O-])c2)cc1 | inconclusive: 91%
CCc1ccc(NC(=O)CNC(=O)c2cn(-c3ccccc3OC)c(=O)c3ccccc23)cc1 | inconclusive: 94%
COc1ccc(-c2ccc(SCc3ccccn3)nn2)cc1OC | inconclusive: 89%
COC(=O)C1=C(N)OC2=C(C(=O)CC(C)(C)C2)C1c1cccnc1 (stereo not given) | inconclusive: 102%
COc1cc(/C=C/c2ccc3cccc([N+](=O)[O-])c3n2)ccc1OCC(=O)O | active: 69%
NS(=O)(=O)c1ccc(N=Nc2c(=O)[nH]n3c(=O)c4c([nH]c23)CCCC4)cc1 | inconclusive: 87%

SMILES | GTP binding activity
COc1ccc(N2C(=O)CC(Sc3nccc(C)n3)C2=O)cc1 (stereo not given) | inconclusive: 100%
C=CCn1c(-c2cccn(Cc3ccc(Cl)cc3Cl)c2=O)n[nH]c1=S | inconclusive: 107%
C/C(=N\NC(=O)Cc1csc(N2CCOCC2)n1)c1ccc(Cl)c(Cl)c1 | inconclusive: 94%
Cc1ccsc1/C=N/NC(=O)c1ccc(-n2cccc2)cc1 | inactive: 102%
COc1cc(C)c(S(=O)(=O)NCc2cccs2)cc1C | inconclusive: 92%
COc1ccccc1NC(=O)CSc1nc2n[nH]c(C)c2c(=N)n1-c1ccccc1Cl | inconclusive: 78%
COC(=O)CSc1nnc(CNC(=O)c2cccc(C)c2)n1-c1ccccc1OC | inconclusive: 104%
CCN(CC)C(=O)Cn1nnc(-c2ccc(S(C)(=O)=O)cc2)n1 | inactive: 98%
CCOC(=O)Nc1ccc(C)cc1NC(=O)OCC | inconclusive: 105%
CCOC(=O)n1c(=O)[nH]c2ccc(Br)cc21 | inactive: 91%
OC(CNCC(c1ccco1)N1CCCCC1)c1ccccc1 (stereo not given) | inconclusive: 107%
CCOc1ccc(C(=O)Cc2cc(OC)c(OC)cc2[N+](=O)[O-])cc1 | inconclusive: 105%
CCOC(=O)c1nn(-c2ccccc2)c(=O)cc1SC(C)C | active: 63%
COc1ccc(/C=C(/C#N)C(=O)Nc2ccc(O)cc2)cc1C(=O)O | inconclusive: 73%
COCCNc1nc2c(c(=O)n(Cc3ccc(OC)cc3)c(=O)n2C)n1C | inactive: 95%
O=C(O)c1ccccc1S(=O)CCO (stereo not given) | inconclusive: 105%
O=C(Nc1cc(Cl)c(O)c(Cl)c1)C1CCCO1 (stereo not given) | inconclusive: 101%
COc1ccc(CC(=O)OCC(=O)Nc2cccnc2Cl)cc1OC | inactive: 96%
COCCn1c(SCC(=O)Nc2ccc(OC)cc2)nc2c(oc3ccccc32)c1=O | inconclusive: 92%
O=C(CN1C(=O)c2cccc3cccc(c23)C1=O)NCCN1CCOCC1 | inconclusive: 97%

Reference: PubChem BioAssay AID760 (NMMLSC, 2007)
